Measurements: the BET-seq Pho4 binding data (Le et al. 2018)
The other results are listed elsewhere or left out. Values were computed here from the reads of four pooled replicates and scatter widely.

Each sequence was assayed against T1, Pho4 (S. cerevisiae) (UniProt P07270) (assay: relative binding free energy (BET-seq); higher = weaker binding). Conditions: reference: library average.
T1 sequence: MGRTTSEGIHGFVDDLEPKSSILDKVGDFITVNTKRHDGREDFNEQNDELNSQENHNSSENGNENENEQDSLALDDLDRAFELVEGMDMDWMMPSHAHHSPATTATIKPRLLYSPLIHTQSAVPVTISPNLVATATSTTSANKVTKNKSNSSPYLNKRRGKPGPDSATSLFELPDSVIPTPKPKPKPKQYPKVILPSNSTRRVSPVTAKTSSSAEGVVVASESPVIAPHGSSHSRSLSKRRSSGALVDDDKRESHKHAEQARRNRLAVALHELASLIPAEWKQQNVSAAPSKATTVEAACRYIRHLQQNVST
GCGTTCACGTGTGGCG was tested, and the “relative binding free energy” value was 0.37 kcal/mol. For GGGTCCACGTGTTAGT, the “relative binding free energy” value was 0.18 kcal/mol. In the case of AAAGGCACGTGTGACG, the “relative binding free energy” value is reported as 0.04 kcal/mol. GTAGACACGTGGGTAT was tested, and the “relative binding free energy” value was -0.11 kcal/mol. In the case of GTTTGCACGTGTCGCG, the “relative binding free energy” value is reported as 0.07 kcal/mol. With TGTGGCACGTGTGGAC the “relative binding free energy” value was 0.04 kcal/mol. For GTTCGCACGTGAATGG, the “relative binding free energy” value was 0.25 kcal/mol. AGTAACACGTGATTGG was tested, and the “relative binding free energy” value was -0.06 kcal/mol. For GGTGGCACGTGGCCGG, the “relative binding free energy” value was -0.18 kcal/mol. In the case of TTAAACACGTGTATGG, the “relative binding free energy” value is reported as -0.16 kcal/mol. In the case of TTGTGCACGTGAAGCG, the “relative binding free energy” value is reported as 0.15 kcal/mol. With AGGTTCACGTGGAGGT the “relative binding free energy” value was 0.2 kcal/mol. For GGGTCCACGTGAGGGA, the “relative binding free energy” value was 0.15 kcal/mol. With TTGAGCACGTGGGGTT the “relative binding free energy” value was -0.1 kcal/mol. With ACGAGCACGTGATGGG the “relative binding free energy” value was -0.05 kcal/mol. For CGTTACACGTGAGGAG, the “relative binding free energy” value was 0.4 kcal/mol. For GTGATCACGTGGTTAG, the “relative binding free energy” value was 0.09 kcal/mol. For ACGTGCACGTGTGTGA, the “relative binding free energy” value was -0.03 kcal/mol. For GGGTCCACGTGCAGTT, the “relative binding free energy” value was 0.07 kcal/mol. For AGGAGCACGTGGGGCG, the “relative binding free energy” value was -0.15 kcal/mol. With ATCTTCACGTGGTATG the “relative binding free energy” value was 0.25 kcal/mol. AGGGGCACGTGTACTT was tested, and the “relative binding free energy” value was -0.02 kcal/mol. In the case of CTATTCACGTGCGTTG, the “relative binding free energy” value is reported as 0.14 kcal/mol. GGTGCCACGTGTTTGA was tested, and the “relative binding free energy” value was 0.03 kcal/mol. For CGTTACACGTGTTCGT, the “relative binding free energy” value was 0 kcal/mol. With TGTTGCACGTGTGAGG the “relative binding free energy” value was 0.12 kcal/mol. For GTGGTCACGTGGGAAC, the “relative binding free energy” value was 0.03 kcal/mol. GTAGTCACGTGGCGTA was tested, and the “relative binding free energy” value was 0.02 kcal/mol. With AAGGGCACGTGAGCGT the “relative binding free energy” value was 0.13 kcal/mol. With GTTAGCACGTGCGGTG the “relative binding free energy” value was 0.05 kcal/mol. With GATTTCACGTGAGTGG the “relative binding free energy” value was 0.45 kcal/mol. For CTTGTCACGTGCTGTG, the “relative binding free energy” value was -0.04 kcal/mol. For GGTAGCACGTGTTATT, the “relative binding free energy” value was 0.07 kcal/mol. With AACATCACGTGGTAGG the “relative binding free energy” value was 0.19 kcal/mol. For AGCCTCACGTGGAGGT, the “relative binding free energy” value was 0.14 kcal/mol. For TATTGCACGTGTTGAG, the “relative binding free energy” value was -0.02 kcal/mol. For GGGTACACGTGGTGCG, the “relative binding free energy” value was 0.04 kcal/mol. TCAGGCACGTGTGAAG was tested, and the “relative binding free energy” value was 0.07 kcal/mol. For TCGTGCACGTGGGTGC, the “relative binding free energy” value was -0.12 kcal/mol. AGTTACACGTGTGCAT was tested, and the “relative binding free energy” value was 0.11 kcal/mol. TGTCGCACGTGTCTGT was tested, and the “relative binding free energy” value was 0.03 kcal/mol. TGAGTCACGTGGTAAG was tested, and the “relative binding free energy” value was 0.11 kcal/mol. AGAGTCACGTGACTGT was tested, and the “relative binding free energy” value was 0.24 kcal/mol. With GGTAACACGTGGATGG the “relative binding free energy” value was 0.06 kcal/mol. In the case of AGGGACACGTGTAATG, the “relative binding free energy” value is reported as -0.05 kcal/mol. AGGAGCACGTGGGACA was tested, and the “relative binding free energy” value was -0.17 kcal/mol. With GGGTTCACGTGAATGG the “relative binding free energy” value was 0.37 kcal/mol. For GTGTACACGTGGCGAT, the “relative binding free energy” value was -0.01 kcal/mol. For ACTGACACGTGTTTGT, the “relative binding free energy” value was -0.09 kcal/mol. In the case of GTTGACACGTGGAAAG, the “relative binding free energy” value is reported as 0.03 kcal/mol. In the case of TGTACCACGTGTTTTG, the “relative binding free energy” value is reported as -0.07 kcal/mol. For AGGCACACGTGTAGTG, the “relative binding free energy” value was 0 kcal/mol. With ATTGGCACGTGTACGG the “relative binding free energy” value was -0.03 kcal/mol. In the case of GGGGGCACGTGAATTT, the “relative binding free energy” value is reported as 0.32 kcal/mol. ATGGCCACGTGAAGGT was tested, and the “relative binding free energy” value was 0.13 kcal/mol. ACAGGCACGTGGTGTA was tested, and the “relative binding free energy” value was -0.21 kcal/mol. For TCTTGCACGTGTAAAT, the “relative binding free energy” value was 0.15 kcal/mol. In the case of AGAGCCACGTGTTTAT, the “relative binding free energy” value is reported as 0.05 kcal/mol. In the case of GTGCCCACGTGAGGGT, the “relative binding free energy” value is reported as 0.17 kcal/mol. In the case of TTGCTCACGTGTTTGT, the “relative binding free energy” value is reported as 0.15 kcal/mol. With GGTGACACGTGGTTGT the “relative binding free energy” value was 0.1 kcal/mol. In the case of CGTCTCACGTGTTGTA, the “relative binding free energy” value is reported as 0.31 kcal/mol. For TGGGGCACGTGGGCGA, the “relative binding free energy” value was -0.23 kcal/mol. In the case of TATTGCACGTGGTTCC, the “relative binding free energy” value is reported as -0.01 kcal/mol. With TGTCACACGTGTGGGA the “relative binding free energy” value was 0.13 kcal/mol. TGTAACACGTGGTTTG was tested, and the “relative binding free energy” value was -0.03 kcal/mol. In the case of CGGTTCACGTGTTAAT, the “relative binding free energy” value is reported as 0.39 kcal/mol. AGGAACACGTGGGAAT was tested, and the “relative binding free energy” value was 0 kcal/mol. GGCGCCACGTGTGATG was tested, and the “relative binding free energy” value was 0.02 kcal/mol. With TTGCGCACGTGTAGGC the “relative binding free energy” value was 0.07 kcal/mol. In the case of TAGGGCACGTGGTGAG, the “relative binding free energy” value is reported as -0.13 kcal/mol. With TCAGTCACGTGGGCGT the “relative binding free energy” value was -0.15 kcal/mol. For TTAGACACGTGTTTAT, the “relative binding free energy” value was -0.01 kcal/mol. In the case of TTACTCACGTGTGGGA, the “relative binding free energy” value is reported as 0.09 kcal/mol. With GCAGGCACGTGGATTG the “relative binding free energy” value was -0.01 kcal/mol. For GGAGACACGTGTTAGT, the “relative binding free energy” value was 0.17 kcal/mol. ATTGTCACGTGCTCTT was tested, and the “relative binding free energy” value was 0.01 kcal/mol. For AAAAGCACGTGCGTGG, the “relative binding free energy” value was -0.15 kcal/mol. In the case of CTGTCCACGTGTGGTG, the “relative binding free energy” value is reported as 0.03 kcal/mol. CAGTGCACGTGGTGCT was tested, and the “relative binding free energy” value was -0.19 kcal/mol. GGTCCCACGTGTGAGT was tested, and the “relative binding free energy” value was 0.17 kcal/mol. With CAGTTCACGTGGGCTG the “relative binding free energy” value was 0.12 kcal/mol. In the case of AGGTTCACGTGTTGTT, the “relative binding free energy” value is reported as 0.21 kcal/mol. In the case of TTTGACACGTGCTGGT, the “relative binding free energy” value is reported as 0.02 kcal/mol. TTAATCACGTGGACGG was tested, and the “relative binding free energy” value was 0.18 kcal/mol. For GAATTCACGTGGCGGT, the “relative binding free energy” value was 0.2 kcal/mol. In the case of TGAGGCACGTGATGCG, the “relative binding free energy” value is reported as -0.03 kcal/mol. With TTTGTCACGTGCGCGT the “relative binding free energy” value was -0.05 kcal/mol. TAGGTCACGTGCCGGT was tested, and the “relative binding free energy” value was -0.01 kcal/mol. With TAGTACACGTGGCGTA the “relative binding free energy” value was -0.07 kcal/mol. With GGTAACACGTGATTTG the “relative binding free energy” value was 0.22 kcal/mol. In the case of GATGGCACGTGGGAGT, the “relative binding free energy” value is reported as -0.14 kcal/mol. In the case of ATGTGCACGTGGTGGT, the “relative binding free energy” value is reported as -0.04 kcal/mol. For ATGAGCACGTGGTATT, the “relative binding free energy” value was -0.1 kcal/mol. For GGTAGCACGTGTTTGG, the “relative binding free energy” value was 0.04 kcal/mol. In the case of TGGGTCACGTGGGGTA, the “relative binding free energy” value is reported as -0.09 kcal/mol. For GGGGGCACGTGAGTAG, the “relative binding free energy” value was 0.1 kcal/mol. With GGCTTCACGTGTACGG the “relative binding free energy” value was 0.3 kcal/mol. For GGATGCACGTGTGCAG, the “relative binding free energy” value was -0.04 kcal/mol. With CTTGACACGTGGTAGG the “relative binding free energy” value was -0.07 kcal/mol. With TAATTCACGTGGGTAG the “relative binding free energy” value was 0.22 kcal/mol. GGTTGCACGTGAGCCT was tested, and the “relative binding free energy” value was 0.38 kcal/mol. For TTGATCACGTGGTACT, the “relative binding free energy” value was 0.03 kcal/mol. For TGTGGCACGTGCAGGA, the “relative binding free energy” value was -0.11 kcal/mol. For GTATGCACGTGGTTGG, the “relative binding free energy” value was -0.07 kcal/mol. For AAGGGCACGTGCAAGT, the “relative binding free energy” value was -0.15 kcal/mol. In the case of TTGGGCACGTGTGATA, the “relative binding free energy” value is reported as -0.01 kcal/mol. In the case of GTGCGCACGTGACTTG, the “relative binding free energy” value is reported as 0.09 kcal/mol. TGTCGCACGTGTTGAA was tested, and the “relative binding free energy” value was 0 kcal/mol. In the case of TGTGACACGTGTTGCA, the “relative binding free energy” value is reported as -0.12 kcal/mol. For ATTGGCACGTGACGGA, the “relative binding free energy” value was -0.06 kcal/mol. With TTGAACACGTGTTTGG the “relative binding free energy” value was 0.04 kcal/mol. TTGGCCACGTGAGTTT was tested, and the “relative binding free energy” value was 0.2 kcal/mol. With TTAAGCACGTGAAAGG the “relative binding free energy” value was 0.27 kcal/mol. In the case of TTTTCCACGTGGGGCG, the “relative binding free energy” value is reported as -0.11 kcal/mol. With GGCTGCACGTGAAAGG the “relative binding free energy” value was 0.39 kcal/mol. For ATGTTCACGTGTCAAT, the “relative binding free energy” value was 0.12 kcal/mol. With AGTGGCACGTGGATAG the “relative binding free energy” value was -0.21 kcal/mol. In the case of GTTGGCACGTGCGAGG, the “relative binding free energy” value is reported as -0.05 kcal/mol. With TGAGACACGTGTGTGT the “relative binding free energy” value was 0.02 kcal/mol. With CTTGTCACGTGAATGT the “relative binding free energy” value was 0.21 kcal/mol. With TGATGCACGTGTGTAG the “relative binding free energy” value was 0.03 kcal/mol. In the case of GTTAACACGTGTTTCT, the “relative binding free energy” value is reported as 0.04 kcal/mol. In the case of CATGGCACGTGGAGGA, the “relative binding free energy” value is reported as -0.06 kcal/mol. With TCGTGCACGTGTGAAT the “relative binding free energy” value was 0.12 kcal/mol. TGGTTCACGTGTGATA was tested, and the “relative binding free energy” value was 0.34 kcal/mol. For GGGTACACGTGCAGGA, the “relative binding free energy” value was 0.18 kcal/mol. In the case of TCTTGCACGTGAGTGT, the “relative binding free energy” value is reported as 0.17 kcal/mol. With GTTTGCACGTGGCTTC the “relative binding free energy” value was 0.03 kcal/mol. TATGACACGTGTTGTG was tested, and the “relative binding free energy” value was -0.02 kcal/mol. In the case of TTTTTCACGTGGATGT, the “relative binding free energy” value is reported as 0.28 kcal/mol. With GATTTCACGTGTGTGA the “relative binding free energy” value was 0.27 kcal/mol. TTCATCACGTGGGATG was tested, and the “relative binding free energy” value was 0.07 kcal/mol. For TGTGGCACGTGCAGAA, the “relative binding free energy” value was -0.1 kcal/mol. ATGTTCACGTGTTTCG was tested, and the “relative binding free energy” value was 0.32 kcal/mol. In the case of TATCTCACGTGTTAAG, the “relative binding free energy” value is reported as 0.47 kcal/mol. TATTACACGTGTGGTT was tested, and the “relative binding free energy” value was 0.08 kcal/mol. With AGGTACACGTGCGGGT the “relative binding free energy” value was -0.02 kcal/mol. GGATCCACGTGAGGGG was tested, and the “relative binding free energy” value was 0.2 kcal/mol. CATATCACGTGATGTT was tested, and the “relative binding free energy” value was 0.27 kcal/mol. In the case of GGGTTCACGTGTGGCC, the “relative binding free energy” value is reported as 0.44 kcal/mol. In the case of GTGTACACGTGACGGG, the “relative binding free energy” value is reported as 0.27 kcal/mol. AAGTTCACGTGAGAAG was tested, and the “relative binding free energy” value was 0.38 kcal/mol. In the case of TGTAGCACGTGGGCTG, the “relative binding free energy” value is reported as -0.27 kcal/mol. In the case of TTTTACACGTGTGTAT, the “relative binding free energy” value is reported as 0.16 kcal/mol. With GGACGCACGTGGGGGA the “relative binding free energy” value was -0.31 kcal/mol.
